From patent US11420968B2 (priority 2018, dated 2022)
Read-outs that look alike come from different tables or passages of the source.

Assays:
Molt-4 cells = experiment: cells; conditions: Homo sapiens, MOLT-4, read-out: Cellular activity (IC50, nM) Molt-4
RS4;11 cells = experiment: cells; conditions: Homo sapiens
[1] = RS4-11, 48 h, read-out: Cellular activity (IC50, nM) RS4;11
[2] = RS4-11, 48 h, read-out: Cellular activity (IC50, nM) RS4, 11
[3] = RS4-11, read-out: Cellular activity (IC50, nM)

Compound | IC50 (Molt-4 cells) | IC50 (RS4;11 cells; [1]) | IC50 (RS4;11 cells; [2]) | IC50 (RS4;11 cells; [3])
CN1CCC2(CC1)CN(c1ccccc1[C@H]1CCCN1c1ccc(-c3ccc(C(=O)NS(=O)(=O)c4ccc(NCC5CCOCC5)c([N+](=O)[O-])c4)c(Oc4cnc5[nH]ccc5c4)c3)cc1)C2 [Example A136, (R)-3-((1H-pyrrolo[2,3-b]pyridin-5-yl)oxy)-4′-(2-(2-(7-methyl-2,7-diazaspiro[3,5]nonan-2-yl)phenyl)pyrrolidin-1-yl)-N-((3-nitro-4-(((tetrahydro-2H-pyran-4-yl)methyl)amino)phenyl)sulfonyl)-[1,1′-biphenyl]-4-carboxamide] | 1410 nM | 3.8 nM | – | –
CN(C)CC1CCCN1c1ccccc1C1CCCN1c1ccc(-c2ccc(C(=O)NS(=O)(=O)c3ccc(NCC4CCOCC4)c([N+](=O)[O-])c3)c(Oc3cnc4[nH]ccc4c3)c2)cc1 (centres unmarked) [Example A137, 3-((1H-pyrrolo[2,3-b]pyridin-5-yl)oxy)-4′-(2-(2-(2-((dimethylamino)methyl)pyrrolidin-1-yl)phenyl)pyrrolidin-1-yl)-N-((3-nitro-4-(((tetrahydro-2H-pyran-4-yl)methyl)amino)phenyl)sulfonyl)-[1,1′-biphenyl]-4-carboxamide] | 3540 nM | 10 nM | – | –
CN1CCC(n2nccc2C2CCCN2c2ccc(-c3ccc(C(=O)NS(=O)(=O)c4ccc(NCC5CCOCC5)c([N+](=O)[O-])c4)c(Oc4cnc5[nH]ccc5c4)c3)cc2)CC1 (centres unmarked) [Example A139, 3-((1H-pyrrolo[2,3-h]pyridin-5-yl)oxy)-4′-(2-(1-(1-methylpiperidin-4-yl)-1H-pyrazol-5-yl)pyrrolidin-1-yl)-N-((3-nitro-4-(((tetrahydro-2H-pyran-4-yl)methyl)amino)phenyl)sulfonyl)-[1,1′-biphenyl]-4-carboxamide] | > 10000 nM | 2320 nM | – | –
CN1CC=C(c2ccc(Cl)cc2C2CCCN2c2ccc(-c3ccc(C(=O)NS(=O)(=O)c4ccc(NCC5CCOCC5)c([N+](=O)[O-])c4)c(Oc4cnc5[nH]ccc5c4)c3)cc2)CC1 (centres unmarked) [Example A140, 3-((1H-pyrrolo[2,3-b]pyridin-5-yl)oxy)-4′-(2-(5-chloro-2-(1-methyl-1,2,3,6-tetrahydropyridin-4-yl)phenyl)pyrrolidin-1-yl)-N-((3-nitro-4-(((tetrahydro-2H-pyran-4-yl)methyl)amino)phenyl)sulfonyl)-[1,1′-biphenyl]-4-carboxamide] | > 10000 nM | 24 nM | – | –
Cn1cc2cccc(C3CCCN3c3ccc(-c4ccc(C(=O)NS(=O)(=O)c5ccc(NCC6CCOCC6)c([N+](=O)[O-])c5)c(Oc5cnc6[nH]ccc6c5)c4)cc3)c2n1 (centres unmarked) [Example A142, 3-((1H-pyrrolo[2,3-b]pyridin-5-yl)oxy)-4′-(2-(2-methyl-2H-indazol-7-yl)pyrrolidin-1-yl)-N-((3-nitro-4-(((tetrahydro-2H-pyran-4-yl)methyl)amino)phenyl)sulfonyl)-[1,1′-biphenyl]-4-carboxamide] | 2510 nM | 108 nM | – | –
O=C(NS(=O)(=O)c1ccc(NCC2CCOCC2)c([N+](=O)[O-])c1)c1ccc(-c2ccc(N3CC(F)=CC3c3ccccc3C3CC3)cc2)cc1Oc1cnc2[nH]ccc2c1 (centres unmarked) [Example A146, 3-((1H-pyrrolo[2,3-b]pyridin-5-yl)oxy)-4′-(2-(2-cyclopropylphenyl)-4-fluoro-2,5-dihydro-1H-pyrrol-1-yl)-N-((3-nitro-4-(((tetrahydro-2H-pyran-4-yl)methyl)amino)phenyl)sulfonyl)-[1,1′-biphenyl]-4-carboxamide] | 1900 nM | 22 nM | – | –
C=C1CC(c2ccccc2C2CC2)N(c2ccc(-c3ccc(C(=O)NS(=O)(=O)c4ccc(NCC5CCOCC5)c([N+](=O)[O-])c4)c(Oc4cnc5[nH]ccc5c4)c3)cc2)C1 (centres unmarked) [Example A150, 3-((1H-pyrrolo[2,3-b]pyridin-5-yl)oxy)-4′-(2-(2-cyclopropylphenyl)-4-methylenepyrrolidin-1-yl)-N-((3-nitro-4-(((tetrahydro-2H-pyran-4-yl)methyl)amino)phenyl)sulfonyl)-[1,1′-biphenyl]-4-carboxamide] | 4110 nM | 41 nM | – | –
CN(C)C1CC(c2ccccc2C2CC2)N(c2ccc(-c3ccc(C(=O)NS(=O)(=O)c4ccc(NCC5CCOCC5)c([N+](=O)[O-])c4)c(Oc4cnc5[nH]ccc5c4)c3)cc2)C1 (centres unmarked) [Example A151, 3-((1H-pyrrolo[2,3-b]pyridin-5-yl)oxy)-4′-(2-(2-cyclopropylphenyl)-4-(dimethylamino)pyrrolidin-1-yl)-N-((3-nitro-4-(((tetrahydro-2H-pyran-4-yl)methyl)amino)phenyl)sulfonyl)-[1,1′-biphenyl]-4-carboxamide] | > 10000 nM | 26 nM | – | –
O=C(NS(=O)(=O)c1ccc(NCC2CCOCC2)c([N+](=O)[O-])c1)c1ccc(-c2ccc(N3CCCCC3c3ccccc3C3CC3)cc2)cc1Oc1cnc2[nH]ccc2c1 (centres unmarked) [Example A152, 3-((1H-pyrrolo[2,3-b]pyridin-5-yl)oxy)-4′-(2-(2-cyclopropylphenyl)piperidin-1-yl)-N-((3-nitro-4-(((tetrahydro-2H-pyran-4-yl)methyl)amino)phenyl)sulfonyl)-[1,1′-biphenyl]-4-carboxamide] | > 10000 nM | 214 nM | – | –
O=C(NS(=O)(=O)c1ccc(NCC2CCOCC2)c([N+](=O)[O-])c1)c1ccc(-c2ccc(N3C(=O)COCC3c3ccccc3C3CC3)cc2)cc1Oc1cnc2[nH]ccc2c1 (centres unmarked) [Example A153, 3-((1H-pyrrolo[2,3-b]pyridin-5-yl)oxy)-4′-(3-(2-cyclopropylphenyl)-5-oxomorpholino)-N-((3-nitro-4-(((tetrahydro-2H-pyran-4-yl)methyl)amino)phenyl)sulfonyl)-[1,1′-biphenyl]-4-carboxamide] | > 10000 nM | 424 nM | – | –
CN1CCN(c2ccc(-c3ccc(C(=O)NS(=O)(=O)c4ccc(NCC5CCOCC5)c([N+](=O)[O-])c4)c(Oc4cnc5[nH]ccc5c4)c3)cc2)C(c2ccccc2C2CC2)C1 (centres unmarked) [Example A155, 3-((1H-pyrrolo[2,3-b]pyridin-5-yl)oxy)-4′-(2-(2-cyclopropylphenyl)-4-methylpiperazin-1-yl)-N-((3-nitro-4-(((tetrahydro-2H-pyran-4-yl)methyl)amino)phenyl)sulfonyl)-[1,1′-biphenyl]-4-carboxamide] | > 10000 nM | 94 nM | – | –
O=C(NS(=O)(=O)c1ccc(NCC2CCOCC2)c([N+](=O)[O-])c1)c1ccc(-c2ccc(N3CCCN3c3ccccc3C3CC3)cc2)cc1Oc1cnc2[nH]ccc2c1 [Example A156, 3-((1H-pyrrolo[2,3-b]pyridin-5-yl)oxy)-4′-(2-(2-cyclopropylphenyl)pyrazolidin-1-yl)-N-((3-nitro-4-(((tetrahydro-2H-pyran-4-yl)methyl)amino)phenyl)sulfonyl)-[1,1′-biphenyl]-4-carboxamide] | 4400 nM | 142 nM | – | –
O=C(NS(=O)(=O)c1ccc(NCC2CCOCC2)c([N+](=O)[O-])c1)c1ccc(-c2ccc(CN3CCCC3c3ccccc3Cl)cc2)cc1Oc1cnc2[nH]ccc2c1 (centres unmarked) [Example B2, 3-((1H-pyrrolo[2,3-b]pyridin-5-yl)oxy)-4′-((2-(2-chlorophenyl)pyrrolidin-1-yl)methyl)-N-((3-nitro-4-(((tetrahydro-2H-pyran-4-yl)methyl)amino)phenyl)sulfonyl)-[1,1′-biphenyl]-4-carboxamide] | 5520 nM | – | 339 nM | 339 nM
O=C(NS(=O)(=O)c1ccc(NCC2CCOCC2)c([N+](=O)[O-])c1)c1ccc(-c2ccc(CN3CCCC3c3ccc(Cl)cc3)cc2)cc1Oc1cnc2[nH]ccc2c1 (centres unmarked) [Example B5, 3-((1H-pyrrolo[2,3-b]pyridin-5-yl)oxy)-4′-((2-(4-chlorophenyl)pyrrolidin-1-yl)methyl)-N-((3-nitro-4-(((tetrahydro-2H-pyran-4-yl)methyl)amino)phenyl)sulfonyl)-[1,1′-biphenyl]-4-carboxamide] | 5090 nM | – | 736 nM | –
CC1(C)CCC(Cc2ccc(-c3ccc(C(=O)NS(=O)(=O)c4ccc(NCC5CCOCC5)c([N+](=O)[O-])c4)c(Oc4cnc5[nH]ccc5c4)c3)cc2)=C(c2ccc(Cl)cc2)C1 [Example B6, 3-((1H-pyrrolo[2,3-b]pyridin-5-yl)oxy)-4′-((4′-chloro-5,5-dimethyl-3,4,5,6-tetrahydro-[1,1′-biphenyl]-2-yl)methyl)-N-((3-nitro-4-(((tetrahydro-2H-pyran-4-yl)methyl)amino)phenyl)sulfonyl)-[1,1′-biphenyl]-4-carboxamide] | 7260 nM | – | 91 nM | 91 nM
O=C(NS(=O)(=O)c1ccc(NCC2CCOCC2)c([N+](=O)[O-])c1)c1ccc(C2=CCN(C(=O)C3CCCN3c3ccccc3)CC2)cc1Oc1cnc2[nH]ccc2c1 (centres unmarked) [Example B8, 2-((1H-pyrrolo[2,3-b]pyridin-5-yl)oxy)-N-((3-nitro-4-(((tetrahydro-2H-pyran-4-yl)methyl)amino)phenyl)sulfonyl)-4-(1-(phenylprolyl)-1,2,3,6-tetrahydropyridin-4-yl)benzamide] | > 10000 nM | – | > 10000 nM | –
O=C(NS(=O)(=O)c1ccc(NCC2CCOCC2)c([N+](=O)[O-])c1)c1ccc(-c2cnn(C3CC(N4CCC[C@H]4c4ccccc4C4CC4)C3)c2)cc1Oc1cnc2[nH]ccc2c1 (stereo partly drawn) [Example B38, (S)-2-((1H-pyrrolo[2,3-b]pyridin-5-yl)oxy)-4-(1-(3-(2-(2-cyclopropylphenyl)pyrrolidin-1-yl)cyclobutyl)-1H-pyrazol-4-yl)-N-((3-nitro-4-(((tetrahydro-2H-pyran-4-yl)methyl)amino)phenyl)sulfonyl)benzamide] | > 10000 nM | 115 nM | – | –
O=C(NS(=O)(=O)c1ccc(NCC2CCOCC2)c([N+](=O)[O-])c1)c1ccc(C2=CCC(N3CCCC3c3cccnc3)CC2)cc1Oc1cnc2[nH]ccc2c1 (centres unmarked) [Example C5, 3-((1H-pyrrolo[2,3-b]pyridin-5-yl)oxy)-N-((3-nitro-4-(((tetrahydro-2H-pyran-4-yl)methyl)amino)phenyl)sulfonyl)-4′-(2-(pyridin-3-yl)pyrrolidin-1-yl)-2′,3′,4′,5′-tetrahydro-[1,1′-biphenyl]-4-carboxamide] | > 10000 nM | – | 4260 nM | –
